Experimental data from patent US8304419B2, “Chemical compounds” (priority 2007, dated 2012).

Tests used:
Experiment in all cases: microbe, parasite or virus in culture
HIV-1 Y181C RT mutant = settings: Human immunodeficiency virus 1, HeLa, read-out: Y181C activity level, HeLa-CD4-LTR-β-gal cells, Y181C virus
From the text: (§1) The HeLa cell assay described herein is a modified version of Kimpton J. and Emerman M., Detection of replication-competent and pseudotyped human immunodeficiency virus with a sensitive cell line on the basis of activation of an integrated β-galactosidase gene, J. Virol. 66:2232-2239 (1992), in which HIV-1 infection is detected by the activation of an HIV-LTR driven β-galactosidase reporter that is integrated into the genome of a CD4+ HeLa cell line. Quantitation of β-galactosidase is achieved by measuring the activation of a chemiluminescent substrate (Applied Biosystems). The concentration of each compound required to inhibit 50% (IC50) of the HIV-1 induced β-galactosidase signal, relative to untreated controls, is determined for each isogenic, recombinant virus.
(§2) HeLa-CD4-LTR-β-gal cells are propagated in DMEM containing 10% fetal bovine serum+0.2 mg/ml geneticin+0.1 mg/ml hygromycin B. Cells are split by standard trypsinization when confluency reaches 80% (roughly every 2 to 3 days).
(§3) DNA encoding the HIV-1 reverse transcriptase is subcloned from a M13 phage into a general shuttle vector, pBCSK+, as a −1.65 kbp EcoRI/HindIII ended DNA fragment. The HIV DNA insert of the resulting plasmid, is completely sequenced on both strands prior to use in site directed mutagenesis experiments. Specific amino acid replacements are made using Stratagene Quick Change reagents and mutagenic oligonucleotides. The mutations that are made include K103N, V106A, Y181C, and Y188L. Following mutagenesis, the entire mutant RT coding sequence is verified by sequencing both DNA strands.
(§4) K103N, V106A, Y181C, and Y188L mutant HIV-1 strains and wild type strains are isolated by a modified Recombinant Virus Assay (Kellam P. and Larder B., Recombinant virus assay: a rapid, phenotypic assay for assessment of drug susceptibility of human immunodeficiency virus type 1 isolates, Antimicrobial Agents and Chemotherapy, 38:23-30, 1994). Ten million MT4 T-cells (maintained in RPMI containing 10% fetal bovine serum, split 1:5 every 5 to 6 days) are co-transfected with EcoRI/HindIII digested mutant RT plasmid and Bst EII-digested HIV-1HXB2ΔRT DNA in the presence of DMRIE-C transfection reagent (Gibco) according to supplier's recommended protocol. Each mutant RT coding sequence is crossed into the RT-deleted HIV-1 viral DNA backbone by in vivo homologous recombination. Transfected cell cultures are expanded and monitored until syncitia formation and CPE are extensive. Virus is harvested by clear spin of the culture supernatants, filtration of the supernatants through a 0.45 micron membrane and frozen at −80° C. as primary stocks. Recombinant progeny virus is sequenced in the RT region to confirm the mutant genotype. Some virus stocks require further expansion by infection of MT4 cells, harvested as above and stored as frozen aliquots. All stocks are titered in HeLa MAGI cells for assay.
(§5) HIV-1 virus stocks are titered in the HeLa-CD4-LTR-β-gal assay system to establish the appropriate infecting dose. The endpoint for this assay is relative light units (RLUs), and titer is recorded as RLUs/ml. Virus stocks are diluted (serial 1:2) into DMEM containing 10% FBS plus 25 ug/ml DEAE-dextran and assayed as described in the “Experimental Protocol” section below without test compound.
(§6) • 1. Seed 96-well plate(s) (Costar #3904) with HeLa-CD4-LTR-β-gal @ 3×10^3 cells per well in 100 ul DMEM containing 10% FBS. Incubate @ 37° C., 5% CO2 overnight. Day 2 • 1. Thaw virus stock in a water bath (room temperature) and dilute into DMEM+10% FBS+25 ug/ml DEAE-dextran to an infectious dose of approximately 10 million RLU/ml. The dilution of virus will vary depending on the titer of the stock (see “Titering of virus stocks” above). • 2. Remove all of the media from every well with an 8 or 12-channel manifold aspirator. Work with one plate at a time to prevent drying of the HeLa-CD4-LTR-β-gal monolayer. Add 35 ul (approximately 350,000 total RLUs) of diluted virus to each well. […]

HIV-1 K103N RT mutant = settings: Human immunodeficiency virus 1, HeLa, read-out: K103N activity level, HeLa-CD4-LTR-β-gal cells, K103N virus
From the text: as §1, §2, §3, §4, §5, §6

HIV-1 V106A RT mutant = settings: Human immunodeficiency virus 1, HeLa, read-out: V106A activity level, HeLa-CD4-LTR-β-gal cells, V106A virus
From the text: as §1, §2, §3, §4, §5, §6

SMILES | IC50 (HIV-1 Y181C RT mutant) [µM] | IC50 (HIV-1 K103N RT mutant) [µM] | IC50 (HIV-1 V106A RT mutant) [µM]
CSc1nc(C(=O)NCc2ccc(Cl)c(Oc3cc(Cl)cc(C#N)c3)c2F)cn1C(c1ccccc1)(c1ccccc1)c1ccccc1 [Example 65, N-({4-chloro-3-[(3-chloro-5-cyanophenyl)oxy]-2-fluorophenyl}methyl)-2-(methylthio)-1-(triphenylmethyl)-1H-imidazole-4-carboxamide trifluoroacetate] | 0.01 to 1 | 0.01 to 1 | 0.01 to 1
N#Cc1cc(Cl)cc(Oc2c(Cl)ccc(CNC(=O)c3ccncc3)c2F)c1 [Example 89, N-({4-chloro-3-[(3-chloro-5-cyanophenyl)oxy]-2-fluorophenyl}methyl)-4-pyridinecarboxamide trifluoroacetate] | 0.01 to 1 | 0.01 to 1 | 0.01 to 1
N#Cc1cc(Cl)cc(Oc2c(Cl)ccc(CNC(=O)c3cc4cc(OC[C@H]5CNCCO5)ccc4[nH]3)c2F)c1 [Example 24, N-({4-Chloro-3-[(3-chloro-5-cyanophenyl)oxy]-2-fluorophenyl}methyl)-5-{[(2R)-2-morpholinylmethyl]oxy}-indole-2-carboxamide] | 0.01 to 1 | < 0.01 | 0.01 to 1
CC(=O)c1ccc2[nH]c(C(=O)NCc3ccc(Cl)c(Oc4cc(Cl)cc(C#N)c4)c3F)cc2c1 [Example 80, 5-acetyl-N-({4-chloro-3-[(3-chloro-5-cyanophenyl)oxy]-2-fluorophenyl}methyl)-1H-indole-2-carboxamide trifluoroacetate] | < 0.01 | < 0.01 | 0.01 to 1
N#Cc1cc(Cl)cc(Oc2c(Cl)ccc(CNC(=O)c3cc4cc(NC(=O)[C@@H]5CCCN5)ccc4[nH]3)c2F)c1 [Example 118, N-({4-chloro-3-[(3-chloro-5-cyanophenyl)oxy]-2-fluorophenyl}methyl)-5-(L-prolylamino)-1H-indole-2-carboxamide trifluoroacetate] | 0.01 to 1 | < 0.01 | 0.01 to 1
CN(Cc1ccc(Cl)c(Oc2cc(Cl)cc(C#N)c2)c1F)C(=O)c1[nH]cnc1Cl [Example 132, 4-chloro-N-({4-chloro-3-[(3-chloro-5-cyanophenyl)oxy]-2-fluorophenyl}methyl)-N-methyl-1′-imidazole-5-carboxamide trifluoroacetate] | < 0.01 | < 0.01 | 0.01 to 1
N#Cc1cc(Cl)cc(Oc2c(Cl)ccc(CNC(=O)c3cnccn3)c2F)c1 [Example 87, N-({4-chloro-3-[(3-chloro-5-cyanophenyl)oxy]-2-fluorophenyl}methyl)-2-pyrazinecarboxamide trifluoroacetate] | 0.01 to 1 | 0.01 to 1 | > 1
N#Cc1cc(Cl)cc(Oc2c(Cl)ccc(CNC(=O)c3cc([N+](=O)[O-])c[nH]3)c2F)c1 [Example 70, N-({4-chloro-3-[(3-chloro-5-cyanophenyl)oxy]-2-fluorophenyl}methyl)-4-nitro-1H-pyrrole-2-carboxamide trifluoroacetate] | < 0.01 | < 0.01 | 0.01 to 1
Cc1nc2ccccn2c1C(=O)NCc1ccc(Cl)c(Oc2cc(Cl)cc(C#N)c2)c1F [Example 97, N-({4-chloro-3-[(3-chloro-5-cyanophenyl)oxy]-2-fluorophenyl}methyl)-2-methylimidazo[1,2-a]pyridine-3-carboxamide trifluoroacetate] | 0.01 to 1 | 0.01 to 1 | > 1
N#Cc1cc(Cl)cc(Oc2c(Cl)ccc(CNC(=O)c3cc4cccc([N+](=O)[O-])c4[nH]3)c2F)c1 [Example 37, N-({4-chloro-3-[(3-chloro-5-cyanophenyl)oxy]-2-fluorophenyl}methyl)-7-nitro-1H-indole-2-carboxamide] | > 1 | 0.01 to 1 | > 1
COC(=O)c1ccc(C(=O)NCc2ccc(Cl)c(Oc3cc(Cl)cc(C#N)c3)c2F)cc1 [Example 15, Methyl 4-{[({4-chloro-3-[(3-chloro-5-cyanophenyl)oxy]-2-fluorophenyl}methyl)amino]carbonyl}benzoate] | > 1 | 0.01 to 1 | > 1
N#Cc1cc(Cl)cc(Oc2c(Cl)ccc(CNC(=O)c3cc4cc(N)ccc4[nH]3)c2F)c1 [Example 111, 5-amino-N-({4-chloro-3-[(3-chloro-5-cyanophenyl)oxy]-2-fluorophenyl}methyl)-1H-indole-2-carboxamide trifluoroacetate] | < 0.01 | < 0.01 | 0.01 to 1
CN(C)c1ccc2[nH]c(C(=O)NCc3ccc(Cl)c(Oc4cc(Cl)cc(C#N)c4)c3F)cc2c1 [Example 126, N-({4-chloro-3-[(3-chloro-5-cyanophenyl)oxy]-2-fluorophenyl}methyl)-5-(dimethylamino)-1H-indole-2-carboxamide] | 0.01 to 1 | 0.01 to 1 | 0.01 to 1
CCc1c(C(=O)NCc2ccc(Cl)c(Oc3cc(Cl)cc(C#N)c3)c2F)[nH]c2ccc(OC)cc12 [Example 81, N-({4-chloro-3-[(3-chloro-5-cyanophenyl)oxy]-2-fluorophenyl}methyl)-3-ethyl-5-(methyloxy)-1H-indole-2-carboxamide trifluoroacetate] | 0.01 to 1 | < 0.01 | 0.01 to 1
CC(C)(C)OC(=O)N1CCC[C@H]1C(=O)Nc1ccc2[nH]c(C(=O)NCc3ccc(Cl)c(Oc4cc(Cl)cc(C#N)c4)c3F)cc2c1 [Example 117, 1,1-dimethylethyl (2S)-2-{[(2-{[({4-chloro-3-[(3-chloro-5-cyanophenyl)oxy]-2-fluorophenyl}methyl)amino]carbonyl}-1H-indol-5-yl)amino]carbonyl}-1-pyrrolidinecarboxylate] | 0.01 to 1 | 0.01 to 1 | 0.01 to 1
CCCc1nc(Cl)c(C(=O)NCc2ccc(Cl)c(Oc3cc(Cl)cc(C#N)c3)c2F)[nH]1 [Example 139, 4-chloro-N-({4-chloro-3-[(3-chloro-5-cyanophenyl)oxy]-2-fluorophenyl}methyl)-2-propyl-1H-imidazole-5-carboxamide] | < 0.01 | < 0.01 | < 0.01
N#Cc1cc(Cl)cc(Oc2c(Cl)ccc(CNC(=O)c3cc4ccccc4[nH]3)c2F)c1 [Example 28, N-({4-chloro-3-[(3-chloro-5-cyanophenyl)oxy]-2-fluorophenyl}methyl)-1H-indole-2-carboxamide] | 0.01 to 1 | 0.01 to 1 | 0.01 to 1
N#Cc1cc(Cl)cc(Oc2c(Cl)ccc(CNC(=O)c3ccno3)c2F)c1 [Example 93, N-({4-chloro-3-[(3-chloro-5-cyanophenyl)oxy]-2-fluorophenyl}methyl)-5-isoxazolecarboxamide] | 0.01 to 1 | 0.01 to 1 | 0.01 to 1
Cc1nn(-c2ccccc2)nc1C(=O)NCc1ccc(Cl)c(Oc2cc(Cl)cc(C#N)c2)c1F [Example 96, N-({4-chloro-3-[(3-chloro-5-cyanophenyl)oxy]-2-fluorophenyl}methyl)-5-methyl-2-phenyl-2H-1,2,3-triazole-4-carboxamide trifluoroacetate] | > 1 | > 1 | > 1

Where a name gives a salt, the structure may show the parent alone.
